PubChem BioAssay (NCI)
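These data come from cells grown in 96-well plates and exposed to compound for 48 hours at five concentrations. GI50 is the concentration that inhibits growth by half.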 The source holds more than one record for some entries. Only these are listed. There may be further records. Records of one sample usually come from different ranges of test concentrations, not given here; a value can be the end of its range.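 TGI is the concentration that stops growth completely.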

System: MDA-MB-468 breast
Experiment: growth of human tumour cells (NCI), 48 h

Row | SMILES | GI50 | TGI
1 | COC(=O)[C@@H](C)C[C@H](Cc1ccccc1)NC(=O)c1csc([C@@H](C[C@H](C(C)C)N(C)C(=O)[C@@H](NC(=O)[C@H]2CCCCN2C)C(C)C)OC(C)=O)n1 | 0.17 nM and 2.5 nM | –
2 | CCNc1nc(N2CC(=O)Nc3cc(OC)ccc32)c2ccccc2n1 | – | 3.63 nM and > 100 µM
